About 200 (0.47%) of roughly 43,000 compounds were called active. Another 12% or so got no clear call; they are omitted. Calls follow the shape of the dose curve; as a rule, active = well fitted cell-killing curve with a large enough effect; inconclusive = small, poorly fitted or top-dose-only effect, or effect the other way; inactive = flat fitted curve, though single readings scatter. Some of the results follow.
Test: Cell viability qHTS assay in S16 Pmp22-F2sN cells; also: nearly all actives have a fitted effect of over 65% in size
Conditions: S16 Pmp22-F2sN Schwann cells viability, CellTiter-Glo, 24 h; series mostly up to 57.5 µM; activity change, negative = cytotoxicity: at the top concentration
In short: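 Viability was measured by CellTiter-Glo luminescence (15 min, room temperature). This followed 24 h at 37 °C of compound exposure (23 nL pin transfer) in S16 Pmp22-F2sN Schwann cells, 500-1,000 per well.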
% is scaled to controls: 0 for no effect and ±100 for the full control effect; potency is read from the fitted curve at half-maximal effect.

| Compound | activity change, negative = cytotoxicity | Potency |
| --- | --- | --- |
| COc1ccc(NC(=O)Cn2cc(C(=O)c3ccccc3)c(=O)c3cc(OC)ccc32)c(OC)c1 | inactive: 18.8% |  |
| O=C(O)CCC(=O)Nc1sc2c(c1C(=O)Nc1ccccc1)CCCCC2 | inactive: 9.74% |  |
| Cc1ccsc1CN(C(=O)c1ccc(OCC(C)C)cc1)C1CCS(=O)(=O)C1 (configuration not stated) | inactive: 0.998% |  |
| CC1(C)CC(=O)c2cc(C#N)c(=O)n(-c3ccc(Cl)cc3)c2C1 | inactive: 0.485% |  |
| Cc1ccc(Sc2c(C)nn(C(=O)c3ccc(Cl)cc3)c2C)cc1 | inactive: -6.22% |  |
| Cc1c(C(=O)OC(C)C)sc(NC(=O)C2c3ccccc3Oc3ccccc32)c1C(=O)OC(C)C | inactive: -20.5% |  |
| CCOC(=O)c1c(S(=O)(=O)N2CCCC(C(=O)Nc3ccc(C)cn3)C2)c(C)n(C)c1C (configuration not stated) | inactive: 0.435% |  |
| Cc1ccc(-n2c3nc(=O)[nH]c(=O)c-3cc3c(C)nn(-c4ccccc4)c32)cc1C | inactive: 9.69% |  |
| CCOC(=O)c1cccc(NS(=O)(=O)c2cc(-c3cnc(C4CC4)o3)ccc2C)c1 |  | active: 20 µM |
| Cc1ccc2oc(-c3cccc(NC(=O)Cc4ccc(Cl)cc4)c3)nc2c1 | inactive: -2.57% |  |
| COc1ccc(-n2nc(C(=O)N3CCN(c4ccccc4OC)CC3)c3c4ccccc4n(C)c3c2=O)cc1Cl | inactive: 20.6% |  |
| CC(=O)N1CCOc2cc(S(=O)(=O)NCc3ccc(F)cc3)c(C)cc21 | inactive: -15.7% |  |
| O=C(NC1CCCc2ccccc21)c1ccc2c(c1)sc1nc(-c3ccccc3)cn12 (configuration not stated) | inactive: 2% |  |
| CC(C)C1N=C2c3ccccc3N=C(SCC(=O)NCc3ccc(Cl)cc3)N2C1=O (configuration not stated) | inactive: 19% |  |
| CCOc1ccc(NC(=O)Cn2ccn3nc(-c4ccc(OC)c(OC)c4)cc3c2=O)cc1 | inactive: -1.2% |  |
| Cc1nc(N2CCCC2)c2c(C(=O)Nc3cccc(Cl)c3)c(C)oc2n1 | inactive: -3.53% |  |
| CCCS(=O)(=O)c1nc(S(=O)(=O)c2ccc(C)cc2)c(NCc2ccccc2Cl)s1 | inactive: -14.1% |  |
| CCOc1ccccc1NC(=O)C1CCN(S(=O)(=O)c2cccs2)CC1 | inactive: 16.2% |  |
| CC(CNC(=O)CCc1cn(Cc2ccccc2Cl)c2ccccc12)c1ccccc1 (configuration not stated) | inactive: 7.14% |  |
| COc1cccc(Oc2nc(C)nc3c2oc2ccccc23)c1 | inactive: 0.862% |  |
| Cc1c(C(=O)NCc2cccc(Cl)c2)sc2nc[nH]c(=O)c12 | inactive: -3.72% |  |

| Compound | activity change, negative = cytotoxicity | Potency |
| --- | --- | --- |
| O=C(Cn1cnc(S(=O)(=O)N2CCCC2)c1)Nc1cccc(Br)c1 | inactive: -1.69% |  |
| Cc1cc(-c2nc3ncccc3o2)ccc1NC(=O)c1ccccc1Br | inactive: 7.01% |  |
| CCCCOc1cccc(C(=O)N(Cc2ccc(N(C)C)cc2)C2CCS(=O)(=O)C2)c1 (configuration not stated) | inactive: -22.8% |  |
| COc1ccc(CCNC(=O)Cn2c(=O)n(-c3ccccc3)c(=O)c3c(C)c(C)sc32)cc1OC | inactive: 7.75% |  |
| O=C(COc1ccc(F)cc1)NCC(c1ccc(Cl)cc1)N1CCCCC1 (configuration not stated) | inactive: 0.137% |  |
| Cc1ccc(CCNC(=O)CCCn2c(=O)c3ccccc3n(Cc3ccccc3C)c2=O)cc1 | inactive: -5.35% |  |
| CCOC(=O)c1ccc(NC(=O)CSc2nnc3c4ccccc4n(CC)c3n2)cc1 | inactive: 9.92% |  |
| COc1ccc(Cn2c(C(=O)O)c(CNCc3ccco3)c3ccc(OC)cc32)cc1 | inactive: -11% |  |
| O=C(CSc1c2c(nc3ccccc13)CCC2)Nc1ccc(F)cc1 | inactive: 22.3% |  |
| COc1ccc(-n2cnc3cc(C(=O)NC4CCCC4)ccc32)cc1 | inactive: 0.503% |  |
| CN(C)c1ccc(CNC(=O)c2ccc(Cn3c(=O)c4cccn4c4cccnc43)cc2)cc1 | inactive: 10.7% |  |
| COCCCNC(=O)CCCn1c(SCC(=O)c2ccc(F)cc2)nc2c(sc3ccccc32)c1=O | inactive: 1.76% |  |
| COC(=O)c1ccccc1NC(=O)c1cnc(Nc2ccc(OC)cc2)c2ccccc12 | inactive: 1.64% |  |
| Cc1ccc(Cn2c(CNC(=O)CCc3ccccc3)nc3cccnc32)cc1 | inactive: -3.57% |  |
| Cc1cccc(N2CCN(Cc3nnc(-c4ccccc4C)o3)CC2C)c1 (configuration not stated) | inactive: 7.85% |  |
| COc1ccc(C2=Nc3ccc(F)cc3NC(c3cccc(C(F)(F)F)c3)=N2)cc1 | inactive: -6.11% |  |
| CCCOc1ccc(C(=O)N(Cc2ccccc2Cl)C2CCS(=O)(=O)C2)cc1 (configuration not stated) | inactive: 1.74% |  |
| Cc1cccc(C)c1NC(=O)c1ccc2c(c1)N(Cc1cccc(Cl)c1)C(=O)c1ccccc1S2=O (configuration not stated) | inactive: -0.994% |  |
| CCOC(=O)c1ccc(NC(=O)Cn2nc(SC)c(S(=O)(=O)c3ccc(Cl)cc3)c2N)cc1 | inactive: -8.2% |  |
| CC(C)CC(=O)Nc1nnc(S(=O)(=O)N2CCCCCC2)s1 | inactive: -1.25% |  |
| CCOc1ccc(C(=O)Nc2cc(NC(=O)c3ccco3)ccc2OC)cc1Br | inactive: 3.76% |  |

| Compound | activity change, negative = cytotoxicity | Potency |
| --- | --- | --- |
| Cc1ccc(CCNC(=O)CCN2N=C(c3ccc(C)cc3)CCC2=O)cc1 | inactive: 3.65% |  |
| COc1ccc(CCC(=O)NCc2ccc3c(c2)CCN3C(=O)c2ccc(F)cc2)cc1 | inactive: -1.18% |  |
| Cc1ccsc1CCN1C(=O)N(c2ccccc2)C(=O)C1CC(=O)Nc1ccc(F)cc1 (configuration not stated) | inactive: -5.6% |  |
| COc1ccc(-c2nc3cc(NC(=O)Cc4ccc(Cl)cc4)ccc3o2)cc1OC | inactive: 7.44% |  |
| Cc1ccc(Cl)cc1Nc1nc2ccccc2c2nncn12 | inactive: 4.04% |  |
| Cc1nc(C)c(-c2ccc(SCC(=O)Nc3ccc(Cl)c(Cl)c3)nn2)s1 | inactive: -0.381% |  |
| COc1ccccc1NC(=O)N1c2ccccc2Sc2ccccc21 | inactive: -22.9% |  |
| COc1ccc(OC)c(-n2nnc3c(sc4nc(C)c(Br)c(C)c43)c2=O)c1 | inactive: 0.116% |  |
| Cc1ccc(C(=O)N(Cc2sccc2C)C2CCS(=O)(=O)C2)cc1 (configuration not stated) | inactive: 6.09% |  |
| Cc1ccc(Cn2c(=O)n(Cc3ccco3)c(=O)c3sc4ccccc4c32)cc1 | inactive: 14.4% |  |
| O=c1c2cnn(-c3ccc(Cl)cc3)c2ncn1Cc1ccc(Cl)cc1Cl | inactive: -3.36% |  |
| Cc1nc2c(C(=O)NCc3ccccc3)cnn2c(C)c1Cc1ccc(F)cc1 | inactive: -2.53% |  |
| CC1=C(C(=O)Nc2ccccc2)C(c2cccnc2)n2nc(SCc3ccccc3F)nc2N1 (configuration not stated) | inactive: -2.13% |  |
| O=c1c2sc3ccccc3c2n(Cc2ccccc2F)c(=O)n1Cc1ccccc1 | inactive: -9.73% |  |
| CCC(CC)C(=O)Nc1cc(-c2cccc(C)c2)nn1-c1ccccc1 | inactive: 17.6% |  |
| COc1ccc(Cl)cc1NC(=O)c1cc(C)nc2c1c(C)nn2-c1ccccc1 | inactive: 2.22% |  |
| COc1cccc(CNC(=O)C2CCN(C(=O)N3CCOc4ccc(Cl)cc43)CC2)c1OC | inactive: -23.3% |  |
| O=C(CC1N=C2c3ccccc3N=C(SCc3ccccc3F)N2C1=O)NCCc1ccccc1 (configuration not stated) | inactive: -27.1% |  |
| Cc1cccc(C(=O)Nc2cc3c(cc2N2CCCCC2)n(C)c(=O)c(=O)n3C)c1 | inactive: 8.2% |  |
| CC(=O)N1CCC2(CC1)OC(=O)C(C)=C2C(=O)Nc1cccc(Cl)c1C | inactive: -0.0034% |  |

From PubChem BioAssay AID1508642 (National Center for Advancing Translational Sciences (NCATS), 2021)
